In PubChem BioAssay AID504832 (National Center for Advancing Translational Sciences (NCATS), 2011):
Hit rate of the full screen: of about 310,000 compounds, about 18,000 (5.8%) were called active. The shares of active, inactive and inconclusive entries below differ from those in the screen. Calls come from the whole dose curve; as a rule, active = well fitted inhibition curve with a large enough effect; inconclusive = small, poorly fitted or top-dose-only effect, or another doubt; inactive = no such curve, though single readings can be large or run the other way. No potency is given beside an inconclusive call; the fits are too rough.

test: Primary qHTS for delayed death inhibitors of the malarial parasite plastid, 48 hour incubation; conditions: P. falciparum luciferase growth in erythrocytes; series mostly up to 28.7 µM; activity change, negative = inhibition: at the top concentration
Outline: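 First compound was added to culture medium, then infected red cells at 0.1% parasitemia and 2% hematocrit (final). After incubation at 37 C under 5% CO2, luciferase detection reagent was dispensed and light output recorded.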
% is set by controls: 0 for no effect and ±100 for the full control effect; potency is the fitted concentration of half-maximal effect; tags give direction and shape of the fitted curve.

SMILES | Potency | activity change, negative = inhibition
CC(=O)N1CCN(C(=O)c2cc(S(=O)(=O)N(C)Cc3ccccc3)ccc2Cl)CC1 | inconclusive [inhibitor, single point] | –
Cc1ccc(C(=O)Nc2ccccc2SCC2CSc3nc4ccccc4c(=O)n32)cc1 (stereo unspecified) | inconclusive [inhibitor, partial curve, poor fit] | –
Cc1nc2c(-c3ccccc3)c[nH]n2c(=O)c1Cc1ccccc1 | – | inactive: 105%
COc1cc(C=O)ccc1OCCOCCOc1c(C)cc(Cl)cc1Cl | inconclusive [inhibitor, partial curve] | –
COc1cc(OC)cc(C(=O)Nc2ccc(S(=O)(=O)Nc3nc(C)cc(C)n3)cc2)c1 | – | inactive: 6.06%
CC(C)(C)CC(=O)Nc1cc2c3c(c1)CCC(=O)N3CCC2 | – | inactive: -6.82%
CCn1cc([N+](=O)[O-])c(C(=O)NCc2ccc(Cl)cc2)n1 | – | inactive: -9.2%
CC(=O)Cc1nsc(NC(=O)c2cccc(F)c2)n1 | – | inactive: 105%
Cc1ccc(Cn2c(=N)n(CC(=O)c3ccc([N+](=O)[O-])cc3)c3ccccc32)cc1 | inconclusive [inhibitor, single point] | –
CCn1cc(C2=NOC(C(=O)Nc3cc(OC)c(Cl)cc3OC)C2)c(C)n1 (stereo unspecified) | inconclusive [inhibitor, single point] | –
Cc1ccc2c(c1)C1CN(C)CCC1N2C(=O)COc1ccc(N(C)S(=O)(=O)c2cccs2)cc1 (stereo unspecified) | inconclusive [inhibitor, single point] | –
COc1ccc(S(=O)(=O)NCC2CCCN(Cc3cccc(C(C)=O)c3)C2)cc1 (stereo unspecified) | inconclusive [inhibitor, single point] | –
CCOC(=O)c1c(NC(=O)COC(=O)Cn2cnc3ccccc32)sc2c1CCC(C)C2 (stereo unspecified) | – | inactive: 6.77%
C=CCN1C(=O)C(O)(CC(=O)c2c(C)n[nH]c2C)c2cc(Br)ccc21 (stereo unspecified) | inconclusive [inhibitor, single point] | –
C/C(NC1CCCCC1)=C(/C#N)C(=O)NCCN1CCOCC1 | – | inactive: 3.92%
CCC(=O)NC(c1cccs1)c1cc(Cl)c2cccnc2c1O (stereo unspecified) | – | inactive: -19.3%
CC(C)(C)SCCNC(=O)c1ccc(Cl)c([N+](=O)[O-])c1 | – | inactive: 6.48%
COc1cc(SC)ccc1C(=O)NCC1CCCCC1 | inconclusive [inhibitor, single point] | –
Cn1cccc1Cc1nnc(SCC(=O)N2CCc3ccccc32)n1-c1ccc(F)cc1 | – | inactive: -28.8%
CC1(c2cc(F)ccc2F)NC(=O)N(CC(=O)Nc2cccc(S(=O)(=O)N3CCCC3)c2)C1=O (stereo unspecified) | active: 11.7 µM | –
BrC(/C=C\c1ccccc1)=N/Nc1nc(N2CCOCC2)nc(N2CCOCC2)n1 | inconclusive [inhibitor, single point] | –
COCCn1c(=S)[nH]c2cc(C(=O)N3CCN(c4ccccc4OC)CC3)ccc2c1=O | inconclusive [inhibitor, partial curve, poor fit] | –
Cc1cccc(Nc2nc(N)c([N+](=O)[O-])c(NCCO)n2)c1 | inconclusive [inhibitor, partial curve, poor fit] | –

SMILES | Potency | activity change, negative = inhibition
COc1cc2c(c(OC)c1)C(c1cccc(OC)c1OC)CC(=O)N2 (stereo unspecified) | – | inactive: -7.2%
CC(NS(=O)(=O)c1ccc(OCC(=O)NCc2cccnc2)cc1)c1ccccc1 (stereo unspecified) | – | inactive: 2.83%
CN(C)CCNC(=O)/C=N/O | inconclusive [inhibitor, single point] | –
CCN(CC)c1ccc(N=Cc2c(O)n(Cc3ccco3)c(=O)[nH]c2=O)cc1 | active: 11.7 µM | –
CCCCN(C(=O)c1cc(Cl)nc2ccccc12)c1c(N)n(Cc2ccccc2)c(=O)[nH]c1=O | inconclusive [inhibitor, partial curve] | –
Cc1ccc(Cl)cc1N1CCN(S(=O)(=O)c2cc3c(cc2C)NC(=O)CO3)CC1 | – | inactive: 5.25%
O=C(NC(=O)c1c(F)cccc1F)Nc1cc(Cl)c(F)c(Cl)c1F | inconclusive [inhibitor, partial curve, poor fit] | –
CN(CC(=O)Nc1ccc(F)cc1)C(=O)COC(=O)c1cc(S(=O)(=O)N(C)C)ccc1N1CCCC1 | active: 11.7 µM | –
CN(CC(=O)N1CCN(Cc2ccccc2)CC1)C(=O)Cc1cccc2ccccc12 | inconclusive [inhibitor, single point] | –
O=C(Nc1nccs1)c1cc2sccc2n1Cc1ccc(F)cc1 | active: 13.1 µM | –
CCCOc1ccc2ccccc2c1/C=N/n1c(C)nnc1-n1nc(C)cc1C | inconclusive [inhibitor, partial curve] | –
COc1cc2[nH]c(C(=O)Nc3ccc4c(c3)OCCO4)cc2c(OC)c1OC | inconclusive [inhibitor, single point] | –
CC[n+]1ccc2cc(OC)c(OC)cc2c1Cc1ccc(OC)c(OC)c1 | active: 1.17 µM | –
CN1CCN(NC(=O)c2cn(-c3ccccc3)nc2-c2cccs2)CC1 | inconclusive [inhibitor, single point] | –
CCOC(=O)c1sc(S(C)(=O)=O)c2c1CCc1conc1-2 | inconclusive [inhibitor, full curve, poor fit] | –
CCSc1nnc(NC(=O)NC(C)(C(F)(F)F)C(F)(F)F)s1 | inconclusive [inhibitor, single point] | –
COc1cc(NC(=O)CN(C)S(=O)(=O)c2cccs2)cc(OC)c1 | – | inactive: 37%
COc1cc2c(cc1C1NC(=S)NC(C)=C1C(N)=O)CCCC2 (stereo unspecified) | – | inactive: 13.7%
C=CCNc1nc(-c2ccccc2)c(C(=O)OCC)cc1C#N | inconclusive [inhibitor, partial curve, poor fit] | –
CCN(CC)c1ncn(Cc2c(Cl)cccc2Cl)c2ncnc1-2 | inconclusive [inhibitor, partial curve, poor fit] | –
CSc1ccc(CN2CCN(C(C)C)C(CCO)C2)cc1 (stereo unspecified) | – | inactive: 19.2%
Cc1ccccc1C(=O)Nc1cccc(NC(=O)c2ccc(-c3ccc(Br)cc3)o2)c1 | inconclusive [inhibitor, single point] | –
CC(=O)Nc1ccc(NC(=O)c2cc(-c3cc(C)c(C)cc3O)n[nH]2)cc1 | active: 1.04 µM | –
